According to PubChem BioAssay AID624417 (National Center for Advancing Translational Sciences (NCATS), 2012):
“And” between values parts separate entries of the source, which are not always exact repeats. Identical values can stand only once. Out of some 410,000 compounds screened, about 6,400 (1.6%) were called active. Inconclusive means that the source gave no clear call. Such entries were picked first, then a sample of the others. The call rests on the fitted dose curve; in most records, active means well fitted inhibition curve with a large enough effect; inconclusive means small, poorly fitted or top-dose-only effect; inactive means no such curve, though single readings can be large or run the other way. Potencies of inconclusive entries are doubtful fits and often do not repeat.
Further: nearly all actives have a fitted effect of over 55% in size.
Potency means the concentration at half of the fitted maximal effect; tags describe the fitted curve by direction and shape.

The compounds below were run against Glucagon-like peptide 1 receptor (Homo sapiens) (UniProt P43220) (assay: qHTS of GLP-1 Receptor Inverse Agonists (Inhibition Mode)). Conditions: HEK293 GLP-1R CRE-luciferase, luminescence, 24 h, GLP-1R form is constitutively active; series mostly up to 38.3 µM.
UniProt P43220, sequence (P43220 whole entry, looked up): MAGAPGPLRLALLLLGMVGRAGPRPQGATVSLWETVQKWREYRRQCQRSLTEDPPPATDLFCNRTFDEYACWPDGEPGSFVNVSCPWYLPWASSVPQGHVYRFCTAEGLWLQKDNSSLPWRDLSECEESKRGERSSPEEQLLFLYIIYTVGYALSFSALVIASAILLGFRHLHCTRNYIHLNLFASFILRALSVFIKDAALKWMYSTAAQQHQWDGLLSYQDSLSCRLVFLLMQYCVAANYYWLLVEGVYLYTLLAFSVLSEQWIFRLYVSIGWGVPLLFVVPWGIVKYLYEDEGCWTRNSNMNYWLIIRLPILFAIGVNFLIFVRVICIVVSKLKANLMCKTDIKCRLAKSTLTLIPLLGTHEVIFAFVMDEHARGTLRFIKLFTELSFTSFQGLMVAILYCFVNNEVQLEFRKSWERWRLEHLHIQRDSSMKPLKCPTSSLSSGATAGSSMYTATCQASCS
Summary of the method: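 HEK293 cells stably co-expressing constitutively active GLP-1R and a cAMP-responsive luciferase reporter were seeded in DMEM with 10% Nu serum, given compounds after 12 h, and incubated 24 h at 37 deg C. Luminescence was then read.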
In the case of `Cc1ccc(-n2c3nc(=O)[nH]c(=O)c-3cc3cc([N+](=O)[O-])ccc32)cc1`, the Potency is reported as inconclusive: 5.62 µM [inhibitor, full curve, poor fit].
`COc1ccccc1C/C(N)=N/OC(=O)c1cccs1` was tested, and the Potency was “inactive”.
`CC(C)(C)NNC(=S)Nc1cccc(C(F)(F)F)c1` was tested, and the Potency was inconclusive: 3.98 µM [inhibitor, full curve, poor fit].
With `O=C(CCC1CCCN(C(=O)c2cccc(F)c2)C1)N1CCN(c2ccccn2)CC1` (stereo not drawn) the Potency was inconclusive: 10 µM [inhibitor, single point].
For `CC1(C)OC(=O)C2=C(C[C@@H](CCOCc3ccccc3)O[C@H]2c2ccc(F)cc2)O1`, the Potency was inconclusive: 12.6 µM [inhibitor, partial curve, poor fit].
With `Cc1nc2c(c(C)c1CCC(=O)N1CCN(c3ccccc3)CC1)c(=O)n(C)c(=O)n2C` the Potency was “inactive”.
For `O/N=C1\CCC\C1=C/c1ccco1`, the Potency was “inactive”.
For `CN(C)CCN(C(=O)c1ccccc1Cl)c1nc2c(Cl)cccc2s1`, the Potency was inconclusive: 11.2 µM [inhibitor, partial curve, poor fit].
For `COc1ccc(N(CC(=O)Nc2cc(C)ccc2C)S(=O)(=O)c2ccccc2[N+](=O)[O-])c(OC)c1`, the Potency was “inactive”.
For `Cc1cc(C)c(S(=O)(=O)Nc2ccc3oc4c(c3c2)CCCC4)cc1C`, the Potency was inconclusive: 10 µM [inhibitor, partial curve, poor fit].
In the case of `CC(C)[C@H](NC(=O)c1nn(Cc2ccccc2)c(=O)c2ccccc12)C(=O)O`, the Potency is reported as “inactive”.
In the case of `CC(O)(C#CCN1CCOCC1)c1ccccc1` (stereo not drawn), the Potency is reported as “inactive”.
`COc1ccc2nc(NC(=O)C3CCN(S(=O)(=O)c4cccnc4)CC3)sc2c1` was tested, and the Potency was inconclusive: 1.41 µM [inhibitor, partial curve, poor fit].
In the case of `COc1ccc(C(=O)/C(C#N)=N/Nc2cccc([N+](=O)[O-])c2)cc1`, the Potency is reported as inconclusive: 1.12 µM [inhibitor, full curve, poor fit].
For `CC(CNC(=O)CCn1c(=O)c2cccn2c2ccc(F)cc21)c1ccccc1` (stereo not drawn), the Potency was inconclusive: 11.2 µM [inhibitor, partial curve, poor fit] and inconclusive: 1.58 µM [inhibitor, full curve, poor fit].
For `CCOc1ccc(CCNC(=O)C2CCN(c3ncnc4c3nc3n4CCCCC3)CC2)cc1`, the Potency was “inactive”.
`COC(=O)C1CCN(Cc2cn(Cc3ccccc3)nc2-c2cc3ccccc3o2)CC1` was tested, and the Potency was inconclusive: 25.1 µM [inhibitor, single point].
With `O=C(NCCCCc1ccccc1)c1ccc(Br)cc1` the Potency was inconclusive: 31.6 µM [inhibitor, partial curve, poor fit].
With `CCOC(=O)C1CCN(C(=O)c2cc3ccc4cccnc4c3[nH]2)CC1` the Potency was “inactive”.
`c1ccc(CCNc2nc(-c3ccccn3)nc3ccccc23)cc1` was tested, and the Potency was inconclusive: 2.24 µM [inhibitor, full curve].
In the case of `CC(=O)c1cccc(NC(=S)N2CCc3ccccc32)c1`, the Potency is reported as inconclusive: 28.2 µM [inhibitor, single point].
`Cc1ccc(Cc2c(-c3cccc(Cl)c3)nc3ccc(Br)cn23)cc1` was tested, and the Potency was inconclusive: 28.2 µM [inhibitor, single point].
For `COc1ccc(OC)c(-c2csc(NC(=O)Cc3ccccc3OC)n2)c1`, the Potency was inconclusive: 12.6 µM [inhibitor, single point].
With `COc1ccccc1CN1CCC(n2nccc2NC(=O)CCCc2ccccc2)CC1` the Potency was inconclusive: 11.2 µM [inhibitor, partial curve, poor fit].
For `CC(C)C[C@@H](CN1CCC[C@H]1CN1C(=O)C(=O)NC[C@@H]1Cc1ccc(O)cc1)N1C[C@H](Cc2ccccc2)N(CC2CCCCCC2)C(=O)C1=O`, the Potency was inconclusive: 28.2 µM [inhibitor, single point].
For `Cc1cccc(N2CCCC2=Nc2ccc(Br)cc2C#N)c1`, the Potency was inconclusive: 10 µM [inhibitor, single point].
For `CN(C)CCCN(Cc1ccccc1)C(=S)Nc1ccc(OC(F)F)cc1`, the Potency was inconclusive: 28.2 µM [inhibitor, single point].
For `COC(=O)c1ccc(Cl)c(NC(=O)CN(c2ccc(OC)cc2)S(=O)(=O)c2ccccc2)c1`, the Potency was inconclusive: 22.4 µM [inhibitor, single point].
`Cc1cccc(N2CCN(C(=O)c3ccc4nc(-c5ccco5)c(-c5ccco5)nc4c3)CC2C)c1` (stereo not drawn) was tested, and the Potency was inconclusive: 28.2 µM [inhibitor, single point].
`CCCNC(=O)c1onc(CSc2cccc(OC)c2)c1C(=O)NCCC` was tested, and the Potency was inconclusive: 20 µM [inhibitor, single point].
For `Cc1cccc(N2CCN(C(=O)c3cc(S(=O)(=O)N4CCC(C)CC4)cn3C)CC2)c1C`, the Potency was inconclusive: 12.6 µM [inhibitor, single point].
For `Cc1onc(-c2ccccc2Cl)c1C(=O)Nc1ccc(CN2CCCC2)cc1`, the Potency was inconclusive: 8.91 µM [inhibitor, partial curve, poor fit].
`COc1cc2cnc(-c3ccccc3)c(C(=O)c3ccc(OCc4ccccc4)cc3)c2cc1OC` was tested, and the Potency was inconclusive: 10 µM [inhibitor, partial curve, poor fit].
With `Cc1c(C(=O)Nc2ccc3c(c2)OCCO3)sc2nc(-c3ccccc3)cn12` the Potency was inconclusive: 10 µM [inhibitor, partial curve].
With `O=C(Nc1ccc(Cl)cc1)Nc1cccnc1` the Potency was inconclusive: 28.2 µM [inhibitor, single point].
For `CC(C)(C)OC(=O)N1CCC(c2c(C(=O)NCCN3CCC(Cc4ccccc4)CC3)cnn2-c2cccc(Cl)c2)CC1`, the Potency was inconclusive: 11.2 µM [inhibitor, partial curve, poor fit].
In the case of `CCN(C(=O)c1noc2c1COc1ccc(C)cc1-2)c1cccc(C)c1`, the Potency is reported as inconclusive: 12.6 µM [inhibitor, single point].
With `Cc1cc(C)c(C)c(OCCCOc2cccc3cccnc23)c1` the Potency was inconclusive: 12.6 µM [inhibitor, partial curve, poor fit].
